Here are results for one compound from article PMC3062741 (Behavioural brain research, 2011).

The target of test [1] is T1, dopamine (DA) transporter (DAT) (Rattus norvegicus, UniProt P23977). The settings on record: for effect on kinetic parameters of [3H]DA uptake: PFC or striatum.
Test [2] addresses T1, dopamine (DA) transporter (DAT). The settings on record: for Bmax of [3H]WIN 35,428 binding, PFC / Bmax of [3H]WIN 35,428 binding, Striatum: 14-day drug-free, saline and MPD 10 mg/kg challenge.
[3] abbreviates: EC rats, repeated MPD 3 mg/kg 10 days.
Where [4] appears, read: EC rats, repeated MPD 10 mg/kg 10 days.
Setting [5] is: IC rats, repeated MPD 3 mg/kg 10 days.
Where [6] appears, read: IC rats, repeated MPD 10 mg/kg 10 days.
Where [7] appears, read: SC rats, repeated MPD 3 mg/kg 10 days.
Setting [8] is: SC rats, repeated MPD 10 mg/kg 10 days.

The structures appear in SMILES notation. Where “and” joins values, the source holds several entries; their conditions need not be identical. Equal values may be shown once. Read-outs that look alike come from different tables or passages of the source.

T1 sequence (P23977 whole entry): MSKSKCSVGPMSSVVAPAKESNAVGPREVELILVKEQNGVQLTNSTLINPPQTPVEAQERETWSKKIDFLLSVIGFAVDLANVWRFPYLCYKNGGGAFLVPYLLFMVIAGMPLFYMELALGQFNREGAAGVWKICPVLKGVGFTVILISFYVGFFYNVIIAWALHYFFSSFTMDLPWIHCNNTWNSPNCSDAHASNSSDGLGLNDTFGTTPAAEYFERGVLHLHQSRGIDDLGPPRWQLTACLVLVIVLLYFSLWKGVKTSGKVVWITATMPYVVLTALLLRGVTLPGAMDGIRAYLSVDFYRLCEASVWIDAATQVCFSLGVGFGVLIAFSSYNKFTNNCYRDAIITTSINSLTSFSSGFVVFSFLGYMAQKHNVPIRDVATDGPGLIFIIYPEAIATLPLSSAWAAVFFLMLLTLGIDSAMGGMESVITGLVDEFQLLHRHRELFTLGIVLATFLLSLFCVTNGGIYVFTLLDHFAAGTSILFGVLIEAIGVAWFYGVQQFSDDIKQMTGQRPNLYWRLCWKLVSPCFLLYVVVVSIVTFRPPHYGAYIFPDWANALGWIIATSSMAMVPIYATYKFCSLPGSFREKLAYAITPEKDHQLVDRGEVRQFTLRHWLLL

As to `COC(=O)C(c1ccccc1)C1CCCCN1` (stereo not shown) [MPD, Methylphenidate], the “effect on kinetic parameters of [3H]DA uptake” value was “did not significantly alter the kinetic parameters” in test [1] (EC or IC rats, acute MPD 3 mg/kg, results not shown) and “did not alter the kinetic parameters” in test [1] (IC rats, acute MPD 10 mg/kg). For the same compound, the “decrease in Vmax of [3H]DA uptake compared to saline controls” value in test [1] (EC rats, PFC, acute MPD 10 mg/kg s.c., 60 min after injection) was 32 ± 3% and 32%. Further, the “decrease in Vmax of [3H]DA uptake compared to saline control” value in test [1] (EC rats, striatum, acute MPD 10 mg/kg s.c., 60 min after injection) is reported as 26 ± 1%. Besides, the “effect on Bmax of [3H]WIN 35,428 binding” value is recorded as “did not alter Bmax values” in test [2] (EC and IC rats, PFC or striatum, repeated MPD 3 mg/kg); “no significant effect” in test [2] (IC rats, striatum, repeated MPD 10 mg/kg vs saline); “No significant differences” in test [2] (SC rats, PFC or striatum, repeated MPD 3 or 10 mg/kg vs saline). The “decrease in Bmax of [3H]WIN 35,428 binding” value in test [2] (EC rats, PFC, repeated MPD 10 mg/kg vs saline) is 34 ± 4%; in test [2] (EC rats, striatum, repeated MPD 10 mg/kg vs saline), 27 ± 3% and 27%; in test [2] (IC rats, PFC, repeated MPD 10 mg/kg vs saline), 24 ± 3% and 24%. For the same compound, the “Bmax of [3H]WIN 35,428 binding, PFC” value in test [2] (setting [3]) turned out to be 0.72 pmol/mg protein; in test [2] (setting [4]), 0.5 pmol/mg protein; in test [2] (setting [5]), 0.78 pmol/mg protein; in test [2] (setting [6]), 0.65 pmol/mg protein; in test [2] (setting [7]) it was 0.52 pmol/mg protein; in test [2] (setting [8]), 0.64 pmol/mg protein. Also, the “Bmax of [3H]WIN 35,428 binding, Striatum” value is 4.87 pmol/mg protein in test [2] (setting [3]); 4.27 pmol/mg protein in test [2] (setting [4]); 4.99 pmol/mg protein in test [2] (setting [5]); 4.59 pmol/mg protein in test [2] (setting [6]); 6.67 pmol/mg protein in test [2] (setting [7]); 6.67 pmol/mg protein in test [2] (setting [8]).
